Structures can show the parent of a compound that is named as a salt. In all, about 2,600 compounds were measured (“total cell number (DAPI+ nuclei) relative to DMSO vehicle control”: median about -1.4, lowest 2% from about -23 on). This is one part of the list.

In this test the test system is jimpy (Plp1 jimpy) mouse iPSC-derived oligodendrocyte progenitor cells. Nature of the test: total cell number (DAPI+ nuclei) relative to DMSO vehicle control (SDs above negative control mean); higher = more surviving cells. The conditions noted are these: 10 µM; 3 days. How it is done:
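Primary phenotypic screen of >3,000 bioactive compounds (Selleck L1700 and Sigma LO1280 libraries) at a single dose of 10 µM. Compounds were added to jimpy (Plp1 mutant) mouse iPSC-derived OPCs at the start of thyroid hormone-induced oligodendrocyte differentiation, one well per compound in 384-well plates. After 3 days cells were stained for MBP, Sox10 and DAPI and imaged with an Operetta system. MBP+ oligodendrocyte number and total cell number were expressed as the number of SDs above the mean of the DMSO negative control on the same plate (n=16 control wells per plate). Hits were defined as >=4 SD for oligodendrocytes and >=2 SD for total cells.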
Compound `CCCCc1ccc(C(=O)O)nc1` [Fusaric acid] gave a total cell number of -1.95. Regarding `OC1CCCCC1N1CCC(c2ccccc2)CC1` (racemic) [(±)-Vesamicol hydrochloride], the total cell number was determined as 6.89.

`COc1cc(-n2c(=S)[nH]c3ccccc3c2=O)c(Cl)cc1Cl` [Mdivi-1] returned a total cell number of 0.904.

Consider `C[N+](C)(C)CC#CCOC(=O)Nc1cccc(Cl)c1`, for which the total cell number is -2.38. In the case of `CN1CCC[C@@H]1Cc1c[nH]c2ccc(Nc3ncccc3[N+](=O)[O-])cc12`, the total cell number is -2.61. The value for `C[C@]12N[C@H](Cc3ccccc31)c1ccccc12` [MK-801 (Dizocilpine)] was -0.24; that for `O=C1CCCN1CC#CCN1CCCC1` [Oxotremorine sesquifumarate salt] was -1.3; that for `CC(N)Cc1c[nH]c2ccc(O)cc12` (stereo not drawn) [alpha-Methyl-5-hydroxytryptamine maleate] was -1.3. Regarding `CC(=O)Nc1ccc(OC[C@](C)(O)C(=O)Nc2ccc([N+](=O)[O-])c(C(F)(F)F)c2)cc1` [Andarine], the total cell number is 0.684. The value for `c1ccc(C2(c3ccccc3)CC2C2=NCCN2)cc1` (centres undefined) [Cibenzoline succinate] was -1.65. The value for `CCCN(CCC)C1CCc2ccc(O)cc2C1` (stereo not drawn) [R-(+)-7-Hydroxy-DPAT hydrobromide] was 0.303; that for `C[C@](O)(COc1ccc(C#N)cc1)C(=O)Nc1ccc(C#N)c(C(F)(F)F)c1` was 3.27. Then `CC(C)N(CCNC(=O)CN1CCCC1=O)C(C)C` [Pramiracetam], with -0.984. Turning to `CNCC(=O)c1ccc(O)c(O)c1` [Adrenalone HCl], the total cell number is -0.24. Then `O=C[C@H](Cl)[C@@H](O)[C@H](O)[C@H](O)CO` [2-Chloro-2-deoxy-D-glucose], with -0.302; and `NNC(N)=O` [Semicarbazide hydrochloride], with 0.198. The value for `Fc1ccc(C(OCCN2CCN(CCCc3ccccc3)CC2)c2ccc(F)cc2)cc1` was -6.27; that for `C=C(C)[C@H]1Cc2c(ccc3c2O[C@@H]2COc4cc(OC)c(OC)cc4[C@@H]2C3=O)O1` [Rotenone] was -9.05; that for `COC(=O)C1=CCCN(C)C1` [Arecoline] was 0.396. Then `COC(=O)C1=CCCN(C)C1` [Arecoline hydrobromide], with 0.0722.

The compound `C[C@]12CC[C@H]3[C@@H](CC[C@@]45O[C@@H]4C(O)=C(C#N)C[C@]35C)[C@@H]1CC[C@@H]2O` [Trilostane] showed a total cell number of -3.36.

`NNC(=O)c1ccc(O)cc1` [4-Hydroxybenzhydrazide] registered a total cell number of -1.31. The value for `COc1ccc(Cc2nccc3cc(OC)c(OC)cc23)cc1OC` [Papaverine hydrochloride] was 3.21. Then `CNCCc1c[nH]c2ccc(O)cc12` [N-omega-Methyl-5-hydroxytryptamine oxalate salt], with -0.776.

(Values after the supplement of paper PMC6135742.)
